The values below come from PMC9911399, “Two distinct binding modes provide the RNA-binding protein RbFox with extraordinary sequence specificity”.

Residue numbers refer to the chain shown, from its start. The list shows a part of the results.

B1: GUCAGGU (DNA:RNA)
RNA: GGGAGACCGGAAUUCAGAUUGUCCGUCAGGUUUAAAUCCCGUCGUAGCCACCA
DNA 1: CAATCTGAATTCCGGTCTCCC
DNA 2: TGGTGGCTACGACGGGATT
B2: GGAUUCA (DNA:RNA)
RNA: B1 RNA with U26G, C27A, A28U, G29U, G30C, U31A
DNA 1: CAATCTGAATTCCGGTCTCCC
DNA 2: TGGTGGCTACGACGGGATT
B3: UUUUGUG (DNA:RNA)
RNA: B1 RNA with G25U, C27U, A28U, G30U, U31G
DNA 1: CAATCTGAATTCCGGTCTCCC
DNA 2: TGGTGGCTACGACGGGATT
B4: UGAACCA (DNA:RNA)
RNA: B1 RNA with G25U, U26G, C27A, G29C, G30C, U31A
DNA 1: CAATCTGAATTCCGGTCTCCC
DNA 2: TGGTGGCTACGACGGGATT
B5: AGGGACA (DNA:RNA)
RNA: GGGAGACCGGAAUUCAGAUUGUCCAGGGACAUUAAAUCCCGUCGUAGCCACCA
DNA 1: CAATCTGAATTCCGGTCTCCC
DNA 2: TGGTGGCTACGACGGGATT
B6: ACGUAGG (DNA:RNA)
RNA: B5 RNA with G26C, G28U, C30G, A31G
DNA 1: CAATCTGAATTCCGGTCTCCC
DNA 2: TGGTGGCTACGACGGGATT
B7: UUAUACG (DNA:RNA)
RNA: B5 RNA with A25U, G26U, G27A, G28U, A31G
DNA 1: CAATCTGAATTCCGGTCTCCC
DNA 2: TGGTGGCTACGACGGGATT
B8: AGUUUGU (DNA:RNA)
RNA: B5 RNA with G27U, G28U, A29U, C30G, A31U
DNA 1: CAATCTGAATTCCGGTCTCCC
DNA 2: TGGTGGCTACGACGGGATT
B9: UAGAAGU (DNA:RNA)
RNA: B1 RNA with G25U, U26A, C27G, G29A
DNA 1: CAATCTGAATTCCGGTCTCCC
DNA 2: TGGTGGCTACGACGGGATT
B10: GAUGUCC (DNA:RNA)
RNA: B5 RNA with A25G, G26A, G27U, A29U, A31C
DNA 1: CAATCTGAATTCCGGTCTCCC
DNA 2: TGGTGGCTACGACGGGATT
B11: UCGCUCC (DNA:RNA)
RNA: B5 RNA with A25U, G26C, G28C, A29U, A31C
DNA 1: CAATCTGAATTCCGGTCTCCC
DNA 2: TGGTGGCTACGACGGGATT
B12: CAGCACA (DNA:RNA)
RNA: B5 RNA with A25C, G26A, G28C
DNA 1: CAATCTGAATTCCGGTCTCCC
DNA 2: TGGTGGCTACGACGGGATT
B13: UGAUGAC (DNA:RNA)
RNA: B5 RNA with A25U, G27A, G28U, A29G, C30A, A31C
DNA 1: CAATCTGAATTCCGGTCTCCC
DNA 2: TGGTGGCTACGACGGGATT
B14: GCGGGCG (DNA:RNA)
RNA: B5 RNA with A25G, G26C, A29G, A31G
DNA 1: CAATCTGAATTCCGGTCTCCC
DNA 2: TGGTGGCTACGACGGGATT
B15: CAUUCAC (DNA:RNA)
RNA: GGGAGACCGGAAUUCAGAUUGUCCCAUUCACUUAAAUCCCGUCGUAGCCACCA
DNA 1: CAATCTGAATTCCGGTCTCCC
DNA 2: TGGTGGCTACGACGGGATT
B16: AUAUCAC (DNA:RNA)
RNA: B15 RNA with C25A, A26U, U27A
DNA 1: CAATCTGAATTCCGGTCTCCC
DNA 2: TGGTGGCTACGACGGGATT
B17: UAGACAA (DNA:RNA)
RNA: B15 RNA with C25U, U27G, U28A, C31A
DNA 1: CAATCTGAATTCCGGTCTCCC
DNA 2: TGGTGGCTACGACGGGATT
B18: ACACCGU (DNA:RNA)
RNA: B1 RNA with G25A, U26C, C27A, A28C, G29C
DNA 1: CAATCTGAATTCCGGTCTCCC
DNA 2: TGGTGGCTACGACGGGATT
B19: AGCGAAA (DNA:RNA)
RNA: B5 RNA with G27C, C30A
DNA 1: CAATCTGAATTCCGGTCTCCC
DNA 2: TGGTGGCTACGACGGGATT
B20: CGACAGG (DNA:RNA)
RNA: B5 RNA with A25C, G27A, G28C, C30G, A31G
DNA 1: CAATCTGAATTCCGGTCTCCC
DNA 2: TGGTGGCTACGACGGGATT
B21: CAAACCU (DNA:RNA)
RNA: B15 RNA with U27A, U28A, A30C, C31U
DNA 1: CAATCTGAATTCCGGTCTCCC
DNA 2: TGGTGGCTACGACGGGATT
B22: CAAUCUU (DNA:RNA)
RNA: B15 RNA with U27A, A30U, C31U
DNA 1: CAATCTGAATTCCGGTCTCCC
DNA 2: TGGTGGCTACGACGGGATT
B23: GAGUUCC (DNA:RNA)
RNA: B15 RNA with C25G, U27G, C29U, A30C
DNA 1: CAATCTGAATTCCGGTCTCCC
DNA 2: TGGTGGCTACGACGGGATT
B24: UCCGUAU (DNA:RNA)
RNA: B1 RNA with G25U, U26C, A28G, G29U, G30A
DNA 1: CAATCTGAATTCCGGTCTCCC
DNA 2: TGGTGGCTACGACGGGATT
B25: CUCAGUU (DNA:RNA)
RNA: B1 RNA with G25C, G30U
DNA 1: CAATCTGAATTCCGGTCTCCC
DNA 2: TGGTGGCTACGACGGGATT
B26: GAUAAUU (DNA:RNA)
RNA: B1 RNA with U26A, C27U, G29A, G30U
DNA 1: CAATCTGAATTCCGGTCTCCC
DNA 2: TGGTGGCTACGACGGGATT
B27: AUCGGUC (DNA:RNA)
RNA: B1 RNA with G25A, A28G, G30U, U31C
DNA 1: CAATCTGAATTCCGGTCTCCC
DNA 2: TGGTGGCTACGACGGGATT
B28: UAGCAUC (DNA:RNA)
RNA: B5 RNA with A25U, G26A, G28C, C30U, A31C
DNA 1: CAATCTGAATTCCGGTCTCCC
DNA 2: TGGTGGCTACGACGGGATT
B29: ACAAAUG (DNA:RNA)
RNA: B5 RNA with G26C, G27A, G28A, C30U, A31G
DNA 1: CAATCTGAATTCCGGTCTCCC
DNA 2: TGGTGGCTACGACGGGATT
B30: AAUGCAU (DNA:RNA)
RNA: B15 RNA with C25A, U28G, C31U
DNA 1: CAATCTGAATTCCGGTCTCCC
DNA 2: TGGTGGCTACGACGGGATT
B31: UUGGGGG (DNA:RNA)
RNA: B1 RNA with G25U, C27G, A28G, U31G
DNA 1: CAATCTGAATTCCGGTCTCCC
DNA 2: TGGTGGCTACGACGGGATT

The assay concerns the target T1, RBFOX1 RRM RbFoxmut (Fox-RRM*) (Homo sapiens, UniProt Q9NWB1 109-208, R118D;E147R;N151S;E152T).
T1 sequence: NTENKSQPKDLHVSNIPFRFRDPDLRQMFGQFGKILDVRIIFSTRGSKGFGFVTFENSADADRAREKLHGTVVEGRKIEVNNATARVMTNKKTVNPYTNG
In words: EMSA; HiTS-Eq, 1 nM pool, 10 min; buffer printed only for the single-RNA assays: 10 mM Tris pH 7.5, 150 mM NaCl, 3.4 mM EDTA, 0.001% NP-40, 30 C. As to conditions: tags: His6 N-terminal (pET28a); label: 5' 32P. The procedure, abridged: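 Purified RbFox RRM, wild type or mutant, was incubated for 10 min in 50 µL with 1 nM of a 5′-radiolabelled RNA pool carrying 7 randomized nucleotides, whose flanks were annealed to DNA oligonucleotides, over a series of increasing protein concentrations. Unbound RNA was resolved on 8% native PAGE, cut out, reverse-transcribed, barcoded by PCR and sequenced on an Illumina HiSeq 2500. Relative association constants were derived from changes in read counts for each RNA species versus the control reaction and normalised to the cognate motif.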
With B1, the binding signal was 0.0959 KA relative to UGCAUGU.
Next, B2: 0.137 KA relative to UGCAUGU; B3: 0.189 KA relative to UGCAUGU.
Under B4 stands 0.0816 KA relative to UGCAUGU; under B5, 0.0746 KA relative to UGCAUGU; under B6, 0.113 KA relative to UGCAUGU.
Next, B7: 0.104 KA relative to UGCAUGU; B8: 0.218 KA relative to UGCAUGU.
As for B9, the binding signal was 0.097 KA relative to UGCAUGU.
Take B10: the binding signal was 0.0533 KA relative to UGCAUGU.
Next, B11: 0.0504 KA relative to UGCAUGU; B12: 0.0719 KA relative to UGCAUGU; B13: 0.107 KA relative to UGCAUGU.
Next, B14: 0.12 KA relative to UGCAUGU.
Take B15: the binding signal was 0.108 KA relative to UGCAUGU.
Next, B16: 0.113 KA relative to UGCAUGU; B17: 0.0308 KA relative to UGCAUGU.
Under B18 stands 0.0982 KA relative to UGCAUGU; under B19, 0.139 KA relative to UGCAUGU; under B20, 0.0877 KA relative to UGCAUGU.
In the case of B21, the binding signal was 0.104 KA relative to UGCAUGU.
Next, B22: 0.0518 KA relative to UGCAUGU.
Next, B23: 0.0447 KA relative to UGCAUGU; B24: 0.0976 KA relative to UGCAUGU.
As for B25, the binding signal is 0.0603 KA relative to UGCAUGU.
Next, B26: 0.0624 KA relative to UGCAUGU.
Regarding B27, the binding signal was 0.182 KA relative to UGCAUGU.
Under B28 stands 0.266 KA relative to UGCAUGU.
With B29, the binding signal was 0.107 KA relative to UGCAUGU.
On to B30, for which the binding signal was 0.11 KA relative to UGCAUGU.
Consider B31, for which the binding signal was 0.0724 KA relative to UGCAUGU.
